Data published in PubChem BioAssay AID540317 (National Center for Advancing Translational Sciences (NCATS), 2011).
Where “and” joins values, the source holds several entries; their conditions need not be identical. Equal entries are not always repeated. Screen size: about 390,000 compounds; about 2,200 (0.56%) were called active. The shares of active, inactive and inconclusive entries below differ from those in the screen. Calls follow the shape of the dose curve; as a rule, active = well fitted inhibition curve with a large enough effect; inconclusive = small, poorly fitted or top-dose-only effect; inactive = no such curve, though single readings can be large or run the other way. A potency beside an inconclusive call is a rough fit, not a confirmed value.

target: Chromobox protein homolog 1 (Homo sapiens) (UniProt P83916); experiment: HTS for Inhibitors of HP1-beta Chromodomain Interactions with Methylated Histone Tails; settings: AlphaScreen HP1-beta / biotin-H3K9me3 peptide binding; series mostly up to 114 µM; also: nearly all actives have a fitted effect of over 70% in size
Procedure, shortened: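 AlphaScreen: HP1-beta (50 nM) preformed 30 min with biotin-H3(1-18)K9me3 peptide (50 nM) in PBS pH 7.4, 0.01% Tween-20. Compound added for 30 min at RT, then streptavidin donor/nickel chelate acceptor beads (10 ug/mL) for 30 min.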
Potency is read from the fitted curve at half-maximal effect; tags tell the direction and shape of the fitted curve.

UniProt P83916, sequence (P83916 whole entry, looked up): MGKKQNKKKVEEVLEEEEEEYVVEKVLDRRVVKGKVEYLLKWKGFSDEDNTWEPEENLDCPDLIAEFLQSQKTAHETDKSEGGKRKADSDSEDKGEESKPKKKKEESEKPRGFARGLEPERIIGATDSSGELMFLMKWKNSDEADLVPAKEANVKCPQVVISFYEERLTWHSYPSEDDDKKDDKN

| SMILES | Potency |
| --- | --- |
| O=C(O)c1ccccc1N=N/C(=N/Nc1cc(S(=O)(=O)O)ccc1O)c1ccccc1 | active: 10 µM |
| COc1cc(C(=O)N2CCC(N3CCCCCC3)CC2)cc(OC)c1OC | inconclusive: 70.8 µM [inhibitor, single point] |
| O=C(O)c1ccc(NC(=S)NC(=O)c2ccc(-c3ccccc3)cc2)cc1 | inconclusive: 50.1 µM [inhibitor, partial curve, poor fit] |
| c1ccc2c(c1)CCN(C1CCCCC1)C2 | inconclusive: 17.8 µM [inhibitor, full curve, poor fit] |
| CN(C)CCCn1c(SCc2ccc(Cl)cc2)nnc1-c1ccncc1 | inconclusive: 44.7 µM [inhibitor, partial curve] |
| Cc1ccc(NC(=O)c2cc(S(=O)(=O)N3CCCCC3)c[nH]2)cc1C | inactive |
| COc1ccc(CN2CCC(C(N)=O)CC2)cc1OCc1ccccc1 | inconclusive: 17.8 µM [inhibitor, full curve] |
| CN(C)C(=O)COC(=O)c1ccc(S(=O)(=O)NCc2ccco2)cc1 | inconclusive: 31.6 µM [inhibitor, full curve] |
| Cc1ccccc1C(=O)NC1CC2CCCC(C1)N2C(=O)Nc1ccccc1 (centres undefined) | inactive |
| O=[N+]([O-])c1ccccc1-c1ccc(C(=S)N2CCN(c3ccccc3)CC2)o1 | inconclusive: 11.2 µM [inhibitor, full curve, poor fit] |
| CN(CC(=O)Nc1ccc(F)cc1)C(=O)CN1C(=O)c2ccccc2C1=O | inactive |
| CCOC(=O)c1ccc(NC(=S)N2CCCC(C(=O)N3CCCC3)C2)cc1 (centres undefined) | inactive |
| Cc1ccc(NC(=S)Nc2ccc(C(C)C)cc2)cc1S(=O)(=O)N1CCCCCC1 | inactive |
| Cc1nc(CSc2nsc(/C=C/N(C)C)c2C#N)cs1 | inconclusive: 35.5 µM [inhibitor, partial curve, poor fit] |
| CCCCNCCOCCSc1ccc(Cl)cc1 | inconclusive: 79.4 µM [inhibitor, partial curve] |
| CS(=O)(=O)Nc1cccc(C2=NN(S(=O)(=O)c3ccccc3)C(c3ccco3)C2)c1 (centres undefined) | inconclusive: 50.1 µM [inhibitor, partial curve] |
| N[C@@H](CCC(=O)N[C@@H](CSN=O)C(=O)NCC(=O)O)C(=O)O | inconclusive: 22.4 µM [inhibitor, partial curve, poor fit] |
| c1ccc(-c2csc(NNC3=NCCCCC3)n2)cc1 | inconclusive: 44.7 µM [inhibitor, partial curve] |
| Cc1nc2cc(NC(=O)NCCCO)ccc2o1 | inactive |
| CN1c2ccc(Cl)cc2-c2nc(SCC(=O)NCc3ccccc3)ncc2S1(=O)=O | inactive |
| Cc1cccc(N2CCN(C(=O)CCCOc3ccccc3)CC2)c1C | inactive |
| CCNC(=S)N1CCN(Cc2ccccc2)CC1 | inconclusive: 14.1 µM [inhibitor, full curve, poor fit] |
| OC(CNCC(c1ccc(Cl)cc1Cl)c1c[nH]c2ccccc12)c1ccccc1 (centres undefined) | inconclusive: 20 µM [inhibitor, full curve] |

| SMILES | Potency |
| --- | --- |
| COCCNc1oc(/C=C/c2ccc(F)cc2)nc1C#N | inactive |
| Cc1ccc(S(=O)(=O)N2CCC(=O)N(CCOC(=O)Nc3cc(C)cc(C)c3)CC2)cc1 | inactive |
| CC1CCN(c2ccc(N3C(=O)C4CCCCC4C3=O)cc2[N+](=O)[O-])CC1 (centres undefined) | inconclusive: 22.4 µM [inhibitor, single point] |
| Cc1cc(NC(=O)CSc2c[nH]c3ccccc23)no1 | inactive |
| O=C(N/N=C/c1coc2ccccc2c1=O)c1ccncc1 | inactive |
| COc1cc2c(cc1OC)C(c1ccc(-c3ccc(Cl)cc3Cl)o1)=NCC2 | inactive |
| Cc1ccc(Nc2nnc(SCC(=O)Nc3ccc(S(=O)(=O)N4CCOCC4)cc3)s2)cc1 | inactive |
| COC(=O)c1ccc(OCCCCN(C)Cc2ccccc2)cc1 | inconclusive: 28.2 µM [inhibitor, partial curve] |
| Cc1cccc(NC(=S)NCCC(c2ccccc2)c2ccccc2)c1 | inconclusive: 22.4 µM [inhibitor, single point] |
| Cc1ccc(S(=O)(=O)N2CCN(C(=O)C3CC3C)CC2)c(C)c1 (centres undefined) | inactive |
| Cc1cc(/C=C2/NC(=O)N(c3ccccc3)C2=O)c(C)n1C(C)C | inconclusive: 50.1 µM [inhibitor, partial curve, poor fit] |
| C=CCNc1oc(-c2cccc3ccccc23)nc1C#N | inactive |
| Cc1ccc(OCC(O)CN2CCN(Cc3ccc4c(c3)OCO4)CC2)c(C)c1 (centres undefined) | inconclusive: 79.4 µM [inhibitor, partial curve, poor fit] |
| Cc1cc(C(C)(C)C)ccc1OCCN1CCCC1 | inactive |
| Cc1sc(-n2c(C)cc(/C=C3\SC(=S)NC3=O)c2C)c(C#N)c1C | inconclusive: 15.8 µM [inhibitor, full curve] |
| CCc1ccc(S(=O)(=O)/N=C2\C=C(Nc3ccc(C(=O)O)cc3)C(=O)c3ccccc32)cc1 | inconclusive: 20 µM [inhibitor, full curve] |
| CCc1nnc(NC(=O)C2CC(=O)N(c3ccc4c(c3)OCCO4)C2)s1 (centres undefined) | inconclusive: 39.8 µM [inhibitor, single point] |
| CCCOc1cccc(-c2nn(-c3ccccc3)cc2/C=C(\C#N)C(=O)NCCCn2ccnc2)c1 | inconclusive: 50.1 µM [inhibitor, single point] |
| Oc1ccc2ccccc2c1C=NC12CN3CCN(CN(C3)C1)C2 | inconclusive: 70.8 µM [inhibitor, partial curve] |
| CCC(C)NCCOCCOc1ccc(Br)cc1 (centres undefined) | inconclusive: 22.4 µM [inhibitor, full curve] |
| COC1=C/C(=C/c2c(O)c(C#N)c3ccccn23)C=CC1=O | inconclusive: 20 µM [inhibitor, full curve] |
| COc1ccc2oc(=O)c(-c3ccccc3C(=O)N3CCOCC3)cc2c1 | inactive |
| CC1Oc2ccccc2OC1(O)c1ccccn1 (centres undefined) | inactive |

| SMILES | Potency |
| --- | --- |
| COC(=O)c1ccc2c(c1)C(C)(C)C(/C=C/c1ccccc1O)=[N+]2C | inconclusive: 25.1 µM [inhibitor, full curve, poor fit] |
| Nc1ccc(N=Nc2ccccc2O)c(N)c1 | inconclusive: 56.2 µM [inhibitor, partial curve, poor fit] |
| CC1=C(C#N)C(=O)NC(=O)/C1=C\c1ccc(-c2ccc(C)cc2[N+](=O)[O-])o1 | inconclusive: 22.4 µM [inhibitor, full curve] |
| CN(C)CCCOc1ccc(C(C)(C)c2ccccc2)cc1 | inconclusive: 17.8 µM [inhibitor, partial curve, poor fit] |
| CCCCn1c(NCc2ccc(N(C)C)cc2)nc2ccccc21 | inconclusive: 35.5 µM [inhibitor, partial curve] and inconclusive: 25.1 µM [inhibitor, full curve] |
| CC1CC(C)CN(C(=O)C2CCN(S(=O)(=O)N3CCC4(CC3)OCCO4)CC2)C1 (centres undefined) | inactive |
| Cc1cc(C)c(C(=O)N2CCCC(N3CCN(c4cccc(C(F)(F)F)c4)CC3)C2)o1 (centres undefined) | inconclusive: 50.1 µM [inhibitor, partial curve] |
| Cc1nnc(SCCN2CCOCC2)n1-c1cccc(Cl)c1 | inconclusive: 35.5 µM [inhibitor, single point] |
| c1ccc(CCc2nn3c(Cc4ccccc4)nnc3s2)cc1 | inconclusive: 11.2 µM [inhibitor, full curve] |
| Cc1nn(Cc2ccccc2)c2ncccc12 | inactive |
| COC(=O)NCC(c1cccnc1)N1CCN(c2ccc(F)cc2)CC1 (centres undefined) | inconclusive: 20 µM [inhibitor, partial curve] |
| O=C(NCc1ccco1)c1sc(=S)n2c1[nH]c(=O)c1ccccc12 | inconclusive: 44.7 µM [inhibitor, partial curve] |
| Cc1ccc(CN2CCCN(C)CC2)c(C)c1 | inconclusive: 39.8 µM [inhibitor, partial curve] |
| Cc1ccc(C(C)C)c(OCCCCCN2CCOCC2)c1 | inconclusive: 56.2 µM [inhibitor, partial curve, poor fit] |
| CCn1c(CNC(=O)Cc2ccc(OC)cc2)nnc1SCC(=O)c1ccccc1 | inconclusive: 79.4 µM [inhibitor, partial curve] |
| CC1=NN(c2ccccc2)C(=O)/C1=C\c1cc(C)n(-c2ccccc2)c1C | inconclusive: 14.1 µM [inhibitor, full curve, poor fit] |
| Cc1ccc(S(=O)(=O)N2CCN(CCc3ccccc3)CC2)c(C)c1 | inconclusive: 15.8 µM [inhibitor, full curve, poor fit] |
| Cc1c(C(=O)N2CCC(c3nc4ccccc4s3)CC2)oc2ccc(Cl)cc12 | inconclusive: 89.1 µM [inhibitor, single point] |
| COCCN(C(=O)c1ccc(OCC(C)C)cc1)c1c(N)n(Cc2ccccc2)c(=O)[nH]c1=O | inactive |
| COc1ccc(C(=O)Nc2ccc(Nc3ccccc3)cc2)cc1[N+](=O)[O-] | inconclusive: 20 µM [inhibitor, full curve] |
| COc1ccc(C(=O)N2CCC(N3CCN(c4ccccc4)CC3)CC2)cc1OC | inconclusive: 31.6 µM [inhibitor, single point] |
| CCOC(=O)c1cc(-c2ccccc2)n(CCC(=O)N2CCN(c3ccccc3OC)CC2)c1C | inconclusive: 28.2 µM [inhibitor, partial curve, poor fit] |
| CC(C)=CCC/C(C)=C/CNC(=O)C[C@H]1C[C@H](C(=O)N2CCCCC2)[C@@]2(CCc3ccccc3)c3[nH]c4cc(-c5ccco5)ccc4c3CCN2C1=O | inactive |
